Test results published in PubChem BioAssay AID2100 (National Center for Advancing Translational Sciences (NCATS), 2009).
The whole screen tested about 300,000 compounds, of which about 1,200 (0.4%) were called active. This list was built around the results that the source calls inconclusive (neither active nor inactive); the mix of calls is not that of the screen. The call rests on the fitted dose curve; in most records, active means well fitted inhibition curve with a large enough effect; inconclusive means small, poorly fitted or top-dose-only effect, or another doubt; inactive means no such curve, though single readings can be large or run the other way. Where the call is inconclusive, the potency comes from a doubtful curve fit.

target: Lysosomal alpha-glucosidase (Homo sapiens) (UniProt P10253); assay: qHTS Assay for Inhibitors and Activators of Human alpha-Glucosidase Cleavage of Glycogen; conditions: recombinant GAA, glycogen substrate, Amplex Red glucose oxidase fluorescence; activity change, negative = inhibition: at 76.4 µM (top of the series) unless noted;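 on activity change, negative = inhibition: 0% = full enzyme reaction and -100% = no-enzyme basal signal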
Summary of the method: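 Recombinant human alpha-glucosidase (4 nM final) hydrolysed bovine liver glycogen (30 ug) for 40 min at 37 C in pH 5.0 citrate/phosphate with 0.01% Tween-20. Released glucose detected by glucose oxidase/Amplex Red, Ex 573/Em 610 nm. Compounds up to 77 uM; AC50 from Hill fits.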
Potency means the concentration at half of the fitted maximal effect.

| Structure (SMILES) | Potency | activity change, negative = inhibition |
| --- | --- | --- |
| COc1cc(C2NC(=O)NC(C)=C2C(=O)OC2CCCC(C)C2)ccc1O (centres undefined) | inconclusive: 28.2 µM [inhibitor, partial curve] |  |
| S=C(NCCCN1CCOCC1)Nc1ccc(N2CCOCC2)cc1 | inconclusive: 56.2 µM [inhibitor, partial curve, poor fit] |  |
| Cc1ccccc1OCC(=O)Nc1ccc2nc(SCC(=O)N3CCCC3)sc2c1 | inactive |  |
| COc1ccccc1Nc1nc(-c2ccccc2)c(CC(=O)O)s1 | inconclusive: 8.91 µM [inhibitor, partial curve] |  |
| CCNC(=S)NNc1nc(N2CCOCC2)nc(N2CCOCC2)n1 | inconclusive: 11.2 µM [inhibitor, partial curve] |  |
| COc1ccc(NC(=O)NNC(=O)c2ccccc2-n2cccc2)cc1OC | inconclusive: 2.82 µM [inhibitor, partial curve] |  |
| Cc1c(/C=N/Nc2nc3ccccc3[nH]2)c2ccccc2n1C | inconclusive: 25.1 µM [inhibitor, single point] |  |
| FC(F)(F)c1cccc(N2CCC(N=CN3CCCCCC3)=N2)c1 | inconclusive: 39.8 µM [inhibitor, single point] |  |
| COc1ccc(-c2nc(C#N)c(NCC3CCCO3)o2)cc1 (centres undefined) | active: 28.2 µM |  |
| COc1cccc(OCCSc2nc(N)cc(N)n2)c1 | inactive |  |
| COc1ccc(Nc2oc(COc3ccc(C)cc3)nc2C#N)cc1 | inconclusive: 28.2 µM [inhibitor, partial curve] |  |
| Cc1nc(C)c(/C(O)=C/c2nc3ccccc3oc2=O)s1 | inconclusive: 3.52 µM [inhibitor, full curve] |  |
| CCNc1ccc(C(=O)OCC(=O)NCCN2C(=O)CSC2=O)cc1[N+](=O)[O-] | inactive |  |
| O=C(N/N=C1\CCc2ccccc21)c1ccccc1O | inconclusive: 39.5 µM [inhibitor, single point] |  |
| CCCCCCC(=O)Nc1nc(C)c(-c2csc(Nc3cccc(OC)c3)n2)s1 | inconclusive: 24.9 µM [inhibitor, single point] |  |
| CCc1c(C(=O)NNC(=S)NC2CCCCC2)csc1C | active: 35.5 µM |  |
| Cc1ccc2c(c1)NCCO2 | inconclusive: 22.4 µM [inhibitor, partial curve] |  |
| CC(=O)Nc1sc(N/N=C\c2ccccc2F)nc1-c1cccs1 | inconclusive: 31.6 µM [inhibitor, partial curve] |  |
| COc1ccc(/C=N/Nc2nc(-c3cccnc3)nc3ccccc23)cc1OC | inconclusive: 22.4 µM [inhibitor, partial curve] |  |
| CCOC(=O)N1CCC(NC(=O)C2CCN(C(=O)c3cc4oc(C)cc4n3Cc3c(F)cccc3Cl)CC2)CC1 | inconclusive: 39.5 µM [inhibitor, partial curve] |  |
| Cc1ccccc1NC(=S)N/N=C/c1ccc(O)cc1O | inconclusive: 20 µM [inhibitor, partial curve] |  |
| O=C(CSC(=S)N1CCCC1)c1cc(Br)cc(Br)c1O | inconclusive: 14.1 µM [inhibitor, partial curve] |  |
| COc1ccccc1N1C(=O)CC(N2CCc3ccccc32)C1=O (centres undefined) | inconclusive: 39.5 µM [inhibitor, single point] |  |

| Structure (SMILES) | Potency | activity change, negative = inhibition |
| --- | --- | --- |
| O=c1[nH][nH]c(=O)n1-c1ccccc1 | inconclusive: 3.98 µM [inhibitor, full curve] |  |
| Cc1nc2ccc(S(=O)(=O)N(C)CC(=O)NCc3ccc(N(C)C)cc3)cc2s1 | inconclusive: 50.1 µM [inhibitor, single point] |  |
| COc1cccc(/C=N/Nc2ccc(S(=O)(=O)O)cc2)c1O | active: 7.88 µM |  |
| COc1ccc(C(=O)/C=C/Nc2c(C)n(C)n(-c3ccccc3)c2=O)cc1OC | active: 3.14 µM |  |
| Cc1ccc2c(CN3CCN(C(=O)c4ccc(Br)cc4)CC3)cc(=O)oc2c1 | inactive |  |
| C=CCOc1c(OC)cc(/C=N/Nc2cccc(C(=O)O)c2)c(Br)c1Br | inconclusive: 25.1 µM [inhibitor, partial curve] |  |
| Nc1[nH][nH]c(=O)c1N=Nc1cccc(Cl)c1 | inconclusive: 28.2 µM [inhibitor, partial curve] |  |
| O=C(O)CCCCCN1C(=O)/C(=C\c2ccc(-c3ccc(Cl)cc3)o2)SC1=S | inactive |  |
| COc1cc(/C=N/Nc2ccc(C(=O)O)cc2)cc(OC)c1OC | inconclusive: 35.5 µM [inhibitor, partial curve] |  |
| CCCN1C(=O)c2cc(C(=O)NCCc3cccc(C)c3)ccc2C1O (centres undefined) | inconclusive: 12.6 µM [inhibitor, partial curve, poor fit] |  |
| O=C(CNC1CCCCCC1)Nc1ccc(N2CCCC2)cc1 | inconclusive: 28 µM [inhibitor, single point] |  |
| CC(=O)N1CCC2(CC1)C(C#N)=C(N)Oc1n[nH]c(C(F)(F)F)c12 | inconclusive: 17.6 µM [inhibitor, single point] |  |
| Cc1ccc(-c2nc(C#N)c(NCC3CCCO3)o2)cc1 (centres undefined) | inconclusive: 15.7 µM [inhibitor, partial curve] |  |
| O=c1[nH]n(-c2cccc3cccnc23)c(=O)c2ccccc12 | inconclusive: 11.1 µM [inhibitor, partial curve] |  |
| COC(=O)CCCC1=CC2=CC(=O)C(C)(OC(=O)c3cccs3)C(=O)C2=CN1C1CCCC1 (centres undefined) | inactive |  |
| COc1ccc(CCC(=O)N2CCN(S(=O)(=O)c3ccc4ccccc4c3)CC2)cc1 | inactive |  |
| C/C(=N\Nc1ccc(Cl)c(C(=O)O)c1)c1ccc(Br)s1 | inconclusive: 11.2 µM [inhibitor, partial curve] |  |
| Cn1c(=O)c2c(nc(N/N=C/c3ccc(OC(=O)c4ccco4)cc3)n2Cc2ccccc2)n(C)c1=O | inconclusive: 31.6 µM [inhibitor, partial curve] |  |
| CC1CCN(c2ccccc2NC(=S)NC(=O)C(C)(C)C)CC1 | inconclusive: 11.2 µM [inhibitor, full curve, poor fit] |  |
| CCCCOc1ccccc1C1C(C(=O)OC)=C(C)N(C)C(C)=C1C(=O)OC | inconclusive: 25.1 µM [inhibitor, partial curve] |  |
| ClCc1csc(N/N=C/c2cccs2)n1 | inconclusive: 39.8 µM [inhibitor, partial curve] |  |
| CCCC1c2ccc(C)n2CCN1C(=O)Nc1ccc(F)cc1 (centres undefined) | inconclusive: 39.8 µM [activator, single point] |  |
| CCOP(=O)(OCC)C(Nc1ccc(OC)cc1)c1ccco1 (centres undefined) | inconclusive: 25.1 µM [inhibitor, partial curve, poor fit] |  |

| Structure (SMILES) | Potency | activity change, negative = inhibition |
| --- | --- | --- |
| Cn1c(CSc2nnc(SCc3ccccc3)s2)nc2ccccc21 | inactive |  |
| O=C(NNc1nc2cc3c(cc2s1)OCCO3)c1ccccc1 | inconclusive: 28.2 µM [inhibitor, partial curve] |  |
| CC(=O)N1c2ccccc2CC1C(=O)NCc1cccc(Cl)c1 (centres undefined) | inactive |  |
| CN(C)c1cccc(NC2=CC(=[N+]3CCOCC3)CC(C)(C)C2)c1 |  | inconclusive: 46.8% [activator] |
| CC(C)Cc1nnc(NC(=O)CCC(=O)N2CCN(S(=O)(=O)c3ccccc3)CC2)s1 | inconclusive: 25.1 µM [inhibitor, single point] |  |
| O=C(NNc1cc(N2CCOCC2)nc(N2CCOCC2)n1)c1ccc([N+](=O)[O-])cc1 | inconclusive: 39.5 µM [inhibitor, single point] |  |
| COc1ccccc1NNC(=O)C(O)(c1ccccc1OC)c1ccccc1OC | inconclusive: 3.55 µM [inhibitor, full curve] |  |
| COc1ccc(NC(=S)N2CCN(Cc3cccc(F)c3)CC2)c(OC)c1 | inconclusive: 28.2 µM [inhibitor, partial curve] |  |
| CC(=O)c1ccc(NC(=O)c2nc(-c3ccc(C)cc3)n3c2CCCCC3)cc1 | inactive |  |
| CCOC(=O)N1CCc2c(sc3c2c(=O)n(Cc2ccccc2)c(=O)n3Cc2ccccc2Cl)C1 | inactive |  |
| COc1ccc(CCNC(=O)Cc2c(C)c3c(cc(C)c4c(C)c(C)oc43)oc2=O)cc1 | inactive |  |
| CCOC(=O)c1cc(C)[nH]c(=S)c1C#N | inconclusive: 22.4 µM [inhibitor, partial curve] |  |
| CCCCOc1ccc(S(=O)(=O)NNC(=O)c2cc3ccccc3o2)cc1 | inconclusive: 25.1 µM [inhibitor, partial curve] |  |
| O=C(C[n+]1ccc(C(=O)N/N=C/c2ccc(Br)cc2)cc1)c1ccccc1 | inconclusive: 20 µM [inhibitor, partial curve] |  |
| O=C(NNc1nc2c(F)cc(F)cc2s1)C1=COCCO1 | active: 4.43 µM |  |
| CCOC(=O)c1[nH]c2ccc(OC)cc2c1NC(=S)N1CCN(c2ccccc2OC)CC1 | active: 3.98 µM |  |
| Cn1c(-c2ccc(Br)cc2)cnc1NCc1ccc(C#N)cc1 | inconclusive: 14.1 µM [inhibitor, partial curve] |  |
| COc1ccc(C(=O)N2CCn3c(C)ccc3C2C)cc1 (centres undefined) | inconclusive: 31.6 µM [activator, partial curve] |  |
| COc1cc(/C=C/C2=NC(=O)C(C)(C)O2)ccc1O | inconclusive: 14.1 µM [inhibitor, partial curve] |  |
| O=C(C[n+]1ccc(C(=O)N/N=C/c2ccc(OCc3ccccc3)cc2)cc1)c1ccccc1 | inconclusive: 28.2 µM [inhibitor, single point] |  |
| O=C(COc1ccc2ccccc2c1)N1CCN(c2ccccc2O)CC1 | active: 14.1 µM |  |
| COc1ccc(N=Cc2c(O)[nH]c3ccccc23)cc1 | inconclusive: 31.6 µM [inhibitor, partial curve] |  |
| COc1cc(NC(=O)Cc2cccc3ccccc23)c(C(=O)O)cc1OC | inconclusive: 35.5 µM [inhibitor, partial curve] |  |
